# Over roughly 2,900 compounds, “NF-kB SEAP reporter activity, fold change vs agonist alone” has its median near 0.99; the highest 2% begin near 2.6. The list shows a part of the results.
# Legend:
# RAW-Dual [1] = experiment: NF-kB SEAP reporter activity, fold change vs agonist alone; cytotoxicity flag (confluency mask): not cytotoxic; higher = enhanced NF-kB activity
# Method in brief: (§1)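 RAW-Dual macrophages (50,000 cells/well in DMEM, 384-well plates) received 50 nL of library stock by pin tool, then a PRR agonist 1 h later, and were kept at 37 °C, 5% CO2. After 20 hours, supernatant was read for IRF by QuantiLuc luminescence and for NF-κB by QuantiBlue absorbance at 620 nm. Reporter activity is fold change over agonist-alone wells. Cytotoxic wells had IncuCyte confluency below 70% of agonist controls in both mask sets.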
# RAW-Dual [2] = experiment: NF-kB SEAP reporter activity, fold change vs agonist alone; higher = enhanced NF-kB activity; settings: cytotoxicity flag (confluency mask): not cytotoxic
# Method in brief: as §1
# [3] = agonist: ODN 1826 (TLR9) 0.5 ug/mL
# [4] = agonist: Pam2CSK4 (TLR2/6) 0.1 ug/mL
# [5] = agonist: Pam3CSK4 (TLR2/1) 0.1 ug/mL
# [6] = library stock concentration (final ~1000-fold dilution): 10 mM, agonist: Imiquimod (TLR7) […]
# [7] = library stock concentration (final ~1000-fold dilution): 10 mM, agonist: MPLA (TLR4) […]
smiles,measurement,setting,value
Cc1cc(C#N)cc(C)c1Oc1nc(Nc2ccc(C#N)cc2)nc(N)c1Br (library stock concentration (final ~1000-fold dilution): 10 mM),NF-kB SEAP reporter activity,RAW-Dual [1]; agonist: LPS (TLR4) 0.1 ug/mL,1.78
same,NF-kB SEAP reporter activity,RAW-Dual [1]; [3],1.16
same,NF-kB SEAP reporter activity,RAW-Dual [1]; [4],0.538
same,NF-kB SEAP reporter activity,RAW-Dual [1]; [5],0.712
Cc1cc(C#N)cc(C)c1Oc1nc(Nc2ccc(C#N)cc2)nc(N)c1Br,NF-kB SEAP reporter activity,RAW-Dual [2]; [6],1.8
same,NF-kB SEAP reporter activity,RAW-Dual [2]; [7],1.86
C=CC1(C)CC(OC(=O)CSCCN(CC)CC)C2(C)C(C)CCC3(CCC(=O)C32)C(C)C1O (configuration not stated) (library stock concentration (final ~1000-fold dilution): 10 mM),NF-kB SEAP reporter activity,RAW-Dual [1]; agonist: LPS (TLR4) 0.1 ug/mL,1.56
same,NF-kB SEAP reporter activity,RAW-Dual [1]; [3],0.725
same,NF-kB SEAP reporter activity,RAW-Dual [1]; [4],1.11
same,NF-kB SEAP reporter activity,RAW-Dual [1]; [5],0.934
C=CC1(C)CC(OC(=O)CSCCN(CC)CC)C2(C)C(C)CCC3(CCC(=O)C32)C(C)C1O (configuration not stated),NF-kB SEAP reporter activity,RAW-Dual [2]; [7],1.12
CNS(=O)(=O)CC1CCC(N(C)c2ncnc3[nH]ccc23)CC1.O=C(O)/C=C\C(=O)O (configuration not stated),NF-kB SEAP reporter activity,RAW-Dual [2]; [6],0.344
same,NF-kB SEAP reporter activity,RAW-Dual [2]; [7],0.601
CNS(=O)(=O)CC1CCC(N(C)c2ncnc3[nH]ccc23)CC1.O=C(O)/C=C\C(=O)O (configuration not stated) (library stock concentration (final ~1000-fold dilution): 10 mM),NF-kB SEAP reporter activity,RAW-Dual [1]; agonist: LPS (TLR4) 0.1 ug/mL,0.402
same,NF-kB SEAP reporter activity,RAW-Dual [1]; [3],0.367
same,NF-kB SEAP reporter activity,RAW-Dual [1]; [4],0.13
same,NF-kB SEAP reporter activity,RAW-Dual [1]; [5],0.193
CCC(C)Nc1cc(C(=O)NC2CC3CCC(C2)N3c2ccc(C(=O)C3CC3)cn2)c(C)cc1C(N)=O (configuration not stated) (library stock concentration (final ~1000-fold dilution): 10 mM),NF-kB SEAP reporter activity,RAW-Dual [1]; agonist: LPS (TLR4) 0.1 ug/mL,0.213
same,NF-kB SEAP reporter activity,RAW-Dual [1]; [3],0.206
same,NF-kB SEAP reporter activity,RAW-Dual [1]; [4],0.0829
same,NF-kB SEAP reporter activity,RAW-Dual [1]; [5],0.117
CCC(C)Nc1cc(C(=O)NC2CC3CCC(C2)N3c2ccc(C(=O)C3CC3)cn2)c(C)cc1C(N)=O (configuration not stated),NF-kB SEAP reporter activity,RAW-Dual [2]; [6],0.273
same,NF-kB SEAP reporter activity,RAW-Dual [2]; [7],0.34
CC(C)n1cnc2c(NCCc3ccc(O)cc3)nc(-c3csc4ccccc34)nc21,NF-kB SEAP reporter activity,RAW-Dual [2]; [6],2.38
same,NF-kB SEAP reporter activity,RAW-Dual [2]; [7],2.64
CC(C)n1cnc2c(NCCc3ccc(O)cc3)nc(-c3csc4ccccc34)nc21 (library stock concentration (final ~1000-fold dilution): 10 mM),NF-kB SEAP reporter activity,RAW-Dual [1]; agonist: LPS (TLR4) 0.1 ug/mL,3.02
same,NF-kB SEAP reporter activity,RAW-Dual [1]; [3],1.56
same,NF-kB SEAP reporter activity,RAW-Dual [1]; [4],0.535
same,NF-kB SEAP reporter activity,RAW-Dual [1]; [5],0.662
CC(C)NC(=N)NC(=N)Nc1ccc(Cl)cc1 (library stock concentration (final ~1000-fold dilution): 10 mM),NF-kB SEAP reporter activity,RAW-Dual [1]; agonist: LPS (TLR4) 0.1 ug/mL,1.34
same,NF-kB SEAP reporter activity,RAW-Dual [1]; [3],0.832
same,NF-kB SEAP reporter activity,RAW-Dual [1]; [4],0.658
same,NF-kB SEAP reporter activity,RAW-Dual [1]; [5],0.69
CC(C)NC(=N)NC(=N)Nc1ccc(Cl)cc1,NF-kB SEAP reporter activity,RAW-Dual [2]; [6],1.04
same,NF-kB SEAP reporter activity,RAW-Dual [2]; [7],1.38
CC(CS)C(=O)N1CCCC1C(=O)O (configuration not stated),NF-kB SEAP reporter activity,RAW-Dual [2]; [6],0.911
same,NF-kB SEAP reporter activity,RAW-Dual [2]; [7],1.08
CC(CS)C(=O)N1CCCC1C(=O)O (configuration not stated) (library stock concentration (final ~1000-fold dilution): 10 mM),NF-kB SEAP reporter activity,RAW-Dual [1]; agonist: LPS (TLR4) 0.1 ug/mL,1.07
same,NF-kB SEAP reporter activity,RAW-Dual [1]; [3],1.03
same,NF-kB SEAP reporter activity,RAW-Dual [1]; [4],1.02
same,NF-kB SEAP reporter activity,RAW-Dual [1]; [5],0.944
Cc1nc2c(O)cccc2c(=O)[nH]1,NF-kB SEAP reporter activity,RAW-Dual [2]; [6],0.857
same,NF-kB SEAP reporter activity,RAW-Dual [2]; [7],1.06
Cc1nc2c(O)cccc2c(=O)[nH]1 (library stock concentration (final ~1000-fold dilution): 10 mM),NF-kB SEAP reporter activity,RAW-Dual [1]; agonist: LPS (TLR4) 0.1 ug/mL,1.03
same,NF-kB SEAP reporter activity,RAW-Dual [1]; [3],1.01
same,NF-kB SEAP reporter activity,RAW-Dual [1]; [4],1.08
same,NF-kB SEAP reporter activity,RAW-Dual [1]; [5],1.06
O=C(NNc1ccccc1)c1ccncc1,NF-kB SEAP reporter activity,RAW-Dual [2]; [6],1.18
same,NF-kB SEAP reporter activity,RAW-Dual [2]; [7],1.36
O=C(NNc1ccccc1)c1ccncc1 (library stock concentration (final ~1000-fold dilution): 10 mM),NF-kB SEAP reporter activity,RAW-Dual [1]; agonist: LPS (TLR4) 0.1 ug/mL,1.51
same,NF-kB SEAP reporter activity,RAW-Dual [1]; [3],0.976
same,NF-kB SEAP reporter activity,RAW-Dual [1]; [4],0.592
same,NF-kB SEAP reporter activity,RAW-Dual [1]; [5],0.782
Cn1c(=O)c(F)c(Nc2ccc(I)cc2F)c2c(=O)n(CC(O)CO)cnc21 (configuration not stated) (library stock concentration (final ~1000-fold dilution): 10 mM),NF-kB SEAP reporter activity,RAW-Dual [1]; agonist: LPS (TLR4) 0.1 ug/mL,0.214
same,NF-kB SEAP reporter activity,RAW-Dual [1]; [3],0.227
same,NF-kB SEAP reporter activity,RAW-Dual [1]; [4],0.121
same,NF-kB SEAP reporter activity,RAW-Dual [1]; [5],0.251
Cn1c(=O)c(F)c(Nc2ccc(I)cc2F)c2c(=O)n(CC(O)CO)cnc21 (configuration not stated),NF-kB SEAP reporter activity,RAW-Dual [2]; [6],0.197
same,NF-kB SEAP reporter activity,RAW-Dual [2]; [7],0.195
c1cc(CN2CCCNCCNCCCNCC2)ccc1CN1CCCNCCNCCCNCC1,NF-kB SEAP reporter activity,"RAW-Dual [2]; library stock concentration (final ~1000-fold dilution): 2 mM water, agonist: Imiquimod (TLR7) […]",0.828
same,NF-kB SEAP reporter activity,"RAW-Dual [2]; library stock concentration (final ~1000-fold dilution): 2 mM water, agonist: MPLA (TLR4) […]",0.771
c1cc(CN2CCCNCCNCCCNCC2)ccc1CN1CCCNCCNCCCNCC1 (library stock concentration (final ~1000-fold dilution): 2 mM water),NF-kB SEAP reporter activity,RAW-Dual [1]; agonist: LPS (TLR4) 0.1 ug/mL,0.992
same,NF-kB SEAP reporter activity,RAW-Dual [1]; [3],0.867
same,NF-kB SEAP reporter activity,RAW-Dual [1]; [4],0.994
same,NF-kB SEAP reporter activity,RAW-Dual [1]; [5],1.14
C#Cc1cccc(Nc2ncnc3cc(OC)c(NC(=O)N4CC5CCN(C)C5C4)cc23)c1 (configuration not stated),NF-kB SEAP reporter activity,RAW-Dual [2]; [6],1.09
same,NF-kB SEAP reporter activity,RAW-Dual [2]; [7],1.4
C#Cc1cccc(Nc2ncnc3cc(OC)c(NC(=O)N4CC5CCN(C)C5C4)cc23)c1 (configuration not stated) (library stock concentration (final ~1000-fold dilution): 10 mM),NF-kB SEAP reporter activity,RAW-Dual [1]; agonist: LPS (TLR4) 0.1 ug/mL,3.99
same,NF-kB SEAP reporter activity,RAW-Dual [1]; [3],0.205
same,NF-kB SEAP reporter activity,RAW-Dual [1]; [4],0.732
same,NF-kB SEAP reporter activity,RAW-Dual [1]; [5],0.783
CC(=O)O[C@@H]1CC[C@@]2(C)[C@@H](CC[C@]3(C)[C@@H]2C(=O)C=C2[C@@H]4[C@@H](C)[C@H](C)CC[C@]4(C)CC[C@]23C)[C@@]1(C)C(=O)O (library stock concentration (final ~1000-fold dilution): 10 mM),NF-kB SEAP reporter activity,RAW-Dual [1]; agonist: LPS (TLR4) 0.1 ug/mL,0.709
same,NF-kB SEAP reporter activity,RAW-Dual [1]; [3],0.986
same,NF-kB SEAP reporter activity,RAW-Dual [1]; [4],0.629
same,NF-kB SEAP reporter activity,RAW-Dual [1]; [5],0.976
CC(=O)O[C@@H]1CC[C@@]2(C)[C@@H](CC[C@]3(C)[C@@H]2C(=O)C=C2[C@@H]4[C@@H](C)[C@H](C)CC[C@]4(C)CC[C@]23C)[C@@]1(C)C(=O)O,NF-kB SEAP reporter activity,RAW-Dual [2]; [6],0.923
same,NF-kB SEAP reporter activity,RAW-Dual [2]; [7],0.977
